Reference: publication PMC10726135
The list shows a part of the results. At the low end of the ranking the order means little. Measured with an extract: partners may take part in the binding.

target: T1, HNF4alpha2 (COS-7 nuclear extract) (UniProt P41235); test: protein-binding microarray; settings: COS-7 nuclear extract on double-stranded Agilent 4x180k PBM; binding buffer, salt, pH and temperature not given; high values mean tight binding; double strand, one strand shown; sequences stand for … in …GCCTAGGGAGATTAGAGTATCGGTCGA
T1 sequence: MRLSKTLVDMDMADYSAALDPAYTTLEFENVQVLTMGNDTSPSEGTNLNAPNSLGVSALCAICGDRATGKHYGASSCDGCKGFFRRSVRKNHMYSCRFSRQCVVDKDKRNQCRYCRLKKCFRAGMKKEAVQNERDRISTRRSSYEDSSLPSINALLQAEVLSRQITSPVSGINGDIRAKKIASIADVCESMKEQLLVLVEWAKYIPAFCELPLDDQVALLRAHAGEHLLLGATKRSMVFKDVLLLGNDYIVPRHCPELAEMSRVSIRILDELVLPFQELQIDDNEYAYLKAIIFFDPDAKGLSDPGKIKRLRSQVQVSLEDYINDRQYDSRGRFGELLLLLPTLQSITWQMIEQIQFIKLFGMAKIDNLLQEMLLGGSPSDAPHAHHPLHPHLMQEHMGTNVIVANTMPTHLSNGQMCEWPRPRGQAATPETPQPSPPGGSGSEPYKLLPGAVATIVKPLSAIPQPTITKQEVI

| Sequence | binding signal (log2 normalized intensity) |
| --- | --- |
| CCACAACCTACCCTTTGCCCTGGACATATT | 2.7 |
| TCACCCACCAGAGGGAACGCCCGACGCGAA | -1.11 |
| GAGAGGAGCAGGGTATCAGTTGAACAGAAT | -0.931 |
| AGCCTCAAAGATCAAAGGTAGATGAATCCA | 0.2 |
| ACATAGTCCCTGCACAGGTTCCTCGCCTAT | -1.12 |
| GCTTGCAAGACTGCATTCTCTAGATGTCCC | 0.328 |
| ACCCAGGCATATCCAACCTTCTCCCACTTC | -1.12 |
| AAACCTACACAGACCCTCTTTTCTTTGTAC | 1.26 |
| TCTTCATTTCCCTCATGCAGGGAGGTCAAA | 2.61 |
| GGCAAAACACCCCTTTCACTTCTTCCCCTC | 3.8 |
| ATTGTGAAACGTTTGAATTCTTGCCTATCC | -1.08 |
| TAACCTGCAGTTTCCCTATTCTCAGTGATA | -1.03 |
| GAAATTTCCTCTTACCACATCTCAACCTTT | 3.14 |
| CTGTGTGGGAAGAGGGCCTAGGGCAGATCC | -1.12 |
| GAATTGGGACCTGAGAACATGTAATCATTT | 0.357 |
| AGACTCAGCATGTCTTCTGACCTTTGGCAA | 6.26 |
| ACTTCAAGGGAGTAAAGGTCGTTCTATCGG | 4.09 |
| CAAGCTCTAGCATCCCTCTCTTGCTGGGCC | -1.27 |
| AAGCTTTCTTGGGCAAGAAAGGGGTCAGCA | 2.08 |
| GGACACAAAGTGGACAGTGTCTGACTAGAG | -0.785 |
| CCTTCGCTCGGCTCGCTCTCCCTGCTGGCC | -0.911 |
| TTTACTTTTTAAACACCTAGAGTTACAGTC | -1.09 |
| TCCAGCTCTGTGACTTTACCTGAAATGAGA | 0.349 |
| CCATTGTTATCTGATCAAATTCCACACCCC | 3.11 |
| AGCCTAGGGTGAGGTGTTCGGGGGACGGAG | -1.11 |

| Sequence | binding signal (log2 normalized intensity) |
| --- | --- |
| GCACAACATACTTGGAGACAGTCACTCCCA | -1.06 |
| ACTGGTTTTTCTTGGGTGTATGGGTATAGG | 2.59 |
| TGGAATGTCTCTGGTTGAAGGGGAGGTTAT | 1.11 |
| GAAGGATAGAGAGTTGGGAGGGAACAGTCC | -1.12 |
| AGCTGTGTCTACCCTTTTGCCCTTTGAGCT | 5.72 |
| GCATCTGGACCATTGCTGACCTTGCCTCTG | 1.61 |
| GTCCTGTGGGGCCCAGAGCCAGGTGTGCTG | -0.375 |
| AATGCCAGGCATTTGCGATAATAGAGATTG | -1.18 |
| AGTGGGAGGTGGAAGTGGCAGATTAGAGAC | -1.16 |
| CCTCCGCTCCGCCGGACCGGCCAAACTGGT | -1.03 |
| GTGGAGGATTTGGGTGATGTTTGGTTAAGA | 1.25 |
| CTGTGTTATGCTTGCAGGTGTCAGGGGTCA | 3.94 |
| CCTTTCATGTTGAACGTCTTCAGAAACTAA | 0.771 |
| AGAAAGGTCTAAAAGTAGCTGTTGGAATTT | 1.39 |
| TCCACATGTGGGGAAACTGGACTGTAATTT | 1.71 |
| TTCTGAGAGTGGCAAGCAGGAGCTGGCCTG | -1.04 |
| GACATAAAATTAAAGCGGACGGGCTGCGGA | -1.17 |
| GCAGAGGCTGCAGAGGTTTCGCAAGGACGT | -0.792 |
| AGCAATGTTTCTTGTCCAGGGACTTTGAAC | 5.74 |
| GTTTTACAAACACAATGGAAGGCTGTATGT | 0.502 |
| CCACCACAAACCCTTCATCCAGCTGTGCTT | -0.538 |
| TGACCCTTGAACAATGTGGGGGTCGGGGCA | 2.16 |
| TACACAAGTAGAATGAAAGCGGCTCAGGAA | -1.16 |
| TATTCAGTCCCCCATCCCAGAGGTCAAACT | 5.08 |
| TGAAACAGTGGGCAATATGAAGGGGAAAAA | -0.838 |

| Sequence | binding signal (log2 normalized intensity) |
| --- | --- |
| CAACAGGTATGCTCCAAAGATGATGCCTCA | -0.799 |
| TTGTGCAAATGGAAAATTGTAATCTTCAGC | 0.503 |
| GGTGTGTTGCAACTTTGACTATAGCGTCTC | 0.723 |
| TCTCTGCTTGCAATTTTTGTTCAGTCATTG | 1.14 |
| CCAACAAGGCAGGAGATTCCACATTCCCTT | -1.17 |
| GCAGTGTGGGGACCTGGACTCCCAAGATGG | -1.1 |
| GAAGTTTGGCAATTACCCAACAGACTTTCC | -1.1 |
| CCCCCCTCACACTTTGGCTACTCAGTTTTT | 1.39 |
| ACCAAACCTGAAAAACCTCTCTCCAGGTAC | -0.888 |
| TGAAGTTCCAGAGCCTTCAAAGGAAAGCAG | -1.19 |
| GACTCCACAGTGGGGCAGATCACAAGCACC | -1.11 |
| GGTTTGCTCTGCTACTGACCAGATGTTATT | 1.03 |
| TCTCATTCACACCCTCAGCTGATGGGTCTC | 1.21 |
| CCCTTTCCTCATATTTTGCATACCAAGGGA | 1.31 |
| CTTGGGGCTGATGTCTTTCTGGCTGGAGAG | 1.05 |
| TTCCACCTGGAATGCACTTGTTCCGGATAG | 1.11 |
| TCACAGCTATTGTATCTATCTCTATGTCCA | 1.09 |
| CCCAGTTAACTGGACAAGGAGGCTGGGCTG | -1.15 |
| TGCACATTCCCTCCAGCAGGGGATGCCCTT | 2.38 |
| GAGTAGAGGTGACTTACATGCAGAGATACT | -1.13 |
| TTGACCATTGTGTTAAAGGAATTCAGGACT | 0.875 |
| GCAAAGTTCAACCCTGAATGTGTGCTGGCC | 0.977 |
| TAACTGCTGCATGTCATGACCTTCATCAAT | 2.46 |
| AAACGCTGAAGTCTCAAAGTTCACCACTTT | 2.66 |
| ATAAAGTTAAGACCTACATTAAGACCACCT | -1.18 |

| Sequence | binding signal (log2 normalized intensity) |
| --- | --- |
| ACATTTTTGTCATCTTCACTTTTGTGGCCT | 2.15 |
| GCCCCACACTCCTGGGCTGTATGTTCTAAC | -0.294 |
| ATCGGTCTTTACACATCTGTTAGGAATGTC | 1.42 |
| AGGAGGGATCTGGCAGGGGCGCGGCCTAAT | -0.915 |
| GGACTTGGGACTCTGCAGACTGGTGCTATG | 2.58 |
| AATGATCTGACTCGGGTGTTCACAGGTGAC | 1.12 |
| ACCTGAGGCCAAGCAGCTGTGATGAGGCCA | -1.13 |
| TTGTACCCTTCTTTCCACCCTGTTGCACAA | 1.65 |
| CTAGCAAATCTGCCCAACCTTTGCCCCTGG | 5.74 |
| TTTGTCTCAGGAACTTTGTTTGTGTTTCCC | 1.35 |
| TTCAGGGTTAAAAGTTCTGCTGAGTATCCA | 0.761 |
| CCCAGTGTCTCTGGGCGCTGGGAAGACAGT | -1.2 |
| TAAACCACCCAATCCTGCAGCATTCCCTAC | -1.14 |
| TGCATTAAAGTCACAAAGGTGGAACTCAAG | 0.849 |
| TGGGCTTCAGACATTGCAAATCTCTTCTTC | -0.484 |
| CACAAAGGGTTATGGGAAGTGGGGTAAGCA | 0.273 |
| CATCGAGGCCATCCCAGTTACTCAGCGAAT | -1.11 |
| TCTTGTTTCAGAGTAAATACGAACCGTCGT | 1.46 |
| TCTGTCTCATTCCCTGACAGACCCCTCCTA | 4.12 |
| GTAATAAGCAGTAGACTAAAACCCATATCT | -1.33 |
| TTGCATAGGCATTGTCTTGAAAGATAAAGT | 0.627 |
| AGCAGCAGGGTCAGAAGGGAGGTAGTCGCC | -1.06 |
| GGAGGGTCTTGCTTTGATGTTGATGGTTGC | 1.54 |
| GGGGGGAAGCTCTGTCACTTCTGGTTACCA | -1.09 |
| AGTAGGATAAGTCCTTCCAAAGTCCTTCTA | 2.41 |

| Sequence | binding signal (log2 normalized intensity) |
| --- | --- |
| TAAGTTGAAGTGAGTTGTTTGTTTTGAGAT | 1.35 |
| TGCCCAGCTGCATCCTGTGCCTTGGTAGAG | -0.618 |
| AGTACAGCTTTTTGTTTGTGTAAGTGTGGG | 2.25 |
| ATCAGGTTTCTCAAGTGATCGAAGGTCAAC | 4.61 |
| CTTCACACAAACATCACCTACCTGACTCCT | -1.17 |
| ATGCCTTGTCTAGTTAAGTGTTCAGCAAAT | 1.22 |
| GTGATAACCCCTATGTCTTCAGACTTCAAA | 1.88 |
| CTGGATGCCCAGGGATTCCTGAAGATCGCA | -1.26 |
| ATTCGTCCAGGGCCGCCCAAGCGAATATGT | -1.02 |
| AGCAATCTACTTTTCTTTTGGCATCTGTTG | 1.44 |
| GCTGGACGCTGGTCAGCATCCTGCTTGTGA | -0.707 |
| GGTGAGGGGAGCGTAAAACCACTGGCCCAT | -1.08 |
| CACAGAAGTGGACCTTCACCAGATACTGAA | 0.751 |
| GGACTGTCCTTTGCTAGATTCTTTCTTCCT | 0.875 |
| GACCAGGAGTTTGGGATCAGACACGTGGGA | 0.516 |
| CCCAGATATCTCTGGTAAACAGCTGACAAT | -0.967 |
| GTACCATTCATGGACAGCCTTGCCACATGG | -1.07 |
| CAATACTAGCAATAACCACAAGGGGGGAGC | -1.1 |
| TAGCCACTGCATGATAGGCCCATCTTCTTA | -1.14 |
| CAAGGTAACCCCCAACATTCTTTCCAGCTT | 1.29 |
| CTCACAGGTTGTACTATGACCCAAACTTCA | 3.43 |
| TGCTCCCTCCTGTGGTAATAAGTTGGTGGA | 1.31 |
| TCAGCCTTGGGGCCATTCCAGTTTTGGAGA | 0.0939 |
| GTTTACTAAAGGAAGGGAGGTGAGTGCTAG | -1.27 |
| CCCTCGACGCGCCGGCGCAGCCGCGCTCCG | -1.06 |

| Sequence | binding signal (log2 normalized intensity) |
| --- | --- |
| GGTTCTTCCACGACTCCCCCGCTCACCCCT | 5.05 |
| CTTTTGGGATCAGCAATGCTCAGCCCACCT | -1.09 |
| CCGCGACAAGCGTCGCTGAGTGGAGGCCCA | -0.847 |
| CCTTGGACTCCTGGACTCAAGGAATCCTCC | 2.4 |
| CTTAAGTTGTACCTGACTAAAACCTGCTGC | -1.18 |
| GACCCTTATCAGCCTAGACAAGGCACCAAA | -1.19 |
| CTCCATCTCCTCCACCAGCTTGCTGCAGAT | -1.04 |
| ACATTCTGGAATGATACGCCGGCCAATCCG | -1.13 |
| TAACATCTAACAGCTGATGAGGCACCAACA | -1.05 |
| TGATGCCTGACTCAAGAAAGGATCTCACCC | -1.16 |
| CTGGTCCTCAGGCCTTTGGACCCAGACTGA | 4.36 |
| CAGGCAGATTTGACCTACGGACCATGGATC | 3.11 |
| TCAGAAACAGGAATTCAAAGGTGCAAAGGT | 2.06 |
| GCAGCACCTTGATGCTGGACTTCAGCCTCC | 4.7 |
| CTTTTTCTTCTGGGGACGCCCACTGCTTTG | -1.21 |
| GACCAGTCTGCCTGACTCCAGAGTCCAAAC | 2.77 |
| GGGCAGCGCGGCGCGCTGGGAAGGCTCGTT | -1.03 |
| GGGGAAATGACCTTTGTCCAGCTGTGCCGA | 6.11 |
| ACAGCCCTGACATTCTTGAGCTGCTAAACC | -0.984 |
| TCTGGCTTGGCCCCCGGACCCAAAGTAAAC | 4.04 |
